Source: the supplement of paper PMC10369915
Some of the results follow. No stated cut-off is given here; in the data, active = 3.2 or more and inactive = the rest. The signal is at background level for most entries.

Experiments:
Assay in all cases: enrichment score (SH2-bound / input frequency) (ratio); bacterial display of known human phosphotyrosine sites (pTyr-Var adds point mutants) read by sequencing; higher = stronger binding; tyrosines were phosphorylated by kinases first
Settings in all cases: peptide library: pTyr-Var
SHP2 C-SH2 domain E139D = biological target: SHP2 C-SH2 domain E139D
[1] = biological target: SHP2 C-SH2 domain wild-type
SHP2 N-SH2 domain L43F = biological target: SHP2 N-SH2 domain L43F
SHP2 N-SH2 domain T42A = biological target: SHP2 N-SH2 domain T42A
SHP2 N-SH2 domain T52S = biological target: SHP2 N-SH2 domain T52S
[2] = biological target: SHP2 N-SH2 domain wild-type

Measured: enrichment score
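Further: displayed peptides selected on beads carrying the immobilized SH2 domain, with library peptides lacking any tyrosine serving as negative controls.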

GAEIVYKSPVV [MAPT_Y711]
inactive: SHP2 C-SH2 domain E139D 0.741 | [1] 0.656 | SHP2 N-SH2 domain L43F 0.672 | SHP2 N-SH2 domain T42A 0.725 | SHP2 N-SH2 domain T52S 0.794 | [2] 0.524

DHAGMYGLGDR [MAPT_Y18_T17M]
inactive: SHP2 C-SH2 domain E139D 0.769 | [1] 0.628 | SHP2 N-SH2 domain L43F 0.5 | SHP2 N-SH2 domain T42A 0.603 | SHP2 N-SH2 domain T52S 0.635 | [2] 0.687

LSIWPYLQKID [MFSD8_Y63_M58L]
inactive: SHP2 C-SH2 domain E139D 1.46 | [1] 2.2 | SHP2 N-SH2 domain L43F 2.2 | SHP2 N-SH2 domain T42A 2.22 | SHP2 N-SH2 domain T52S 2.44 | [2] 1.61

CEETFYTMKVN [MASP2_Y401]
inactive: SHP2 C-SH2 domain E139D 0.993 | [1] 0.944 | SHP2 N-SH2 domain L43F 1.18 | SHP2 N-SH2 domain T42A 0.919 | SHP2 N-SH2 domain T52S 0.962 | [2] 1.42

DGYIDYAEFAK [MCFD2_Y138]
inactive: SHP2 C-SH2 domain E139D 0.593 | [1] 0.362 | SHP2 N-SH2 domain L43F 0.645 | SHP2 N-SH2 domain T42A 0.488 | SHP2 N-SH2 domain T52S 0.287 | [2] 0.838

QRTMKYTTATE [MCCC1_Y41_G46E]
inactive: SHP2 C-SH2 domain E139D 0.735 | [1] 0.52 | SHP2 N-SH2 domain L43F 0.903 | SHP2 N-SH2 domain T42A 0.6 | SHP2 N-SH2 domain T52S 0.573 | [2] 0.8

PFRKLYESVKK [MKI67_Y241_W238R]
inactive: SHP2 C-SH2 domain E139D 0.616 | [1] 0.73 | SHP2 N-SH2 domain L43F 0.503 | SHP2 N-SH2 domain T42A 0.439 | SHP2 N-SH2 domain T52S 0.515 | [2] 1.01

FDGKEYDPVEA [MAPRE2_Y167_YF]
inactive: SHP2 C-SH2 domain E139D 1.06 | [1] 0.646 | SHP2 N-SH2 domain L43F 0.861 | SHP2 N-SH2 domain T42A 0.647 | SHP2 N-SH2 domain T52S 1.24 | [2] 0.737

FDGGCYEQLFV [MC4R_Y41_S36Y_YF]
inactive: SHP2 C-SH2 domain E139D 1.25 | [1] 1.48 | SHP2 N-SH2 domain L43F 1.18 | SHP2 N-SH2 domain T42A 1.01 | SHP2 N-SH2 domain T52S 1.07 | [2] 1.62

MDDKEYYSVHN [MET_Y1234_Y1230D]
inactive: SHP2 C-SH2 domain E139D 0.598 | [1] 0.515 | SHP2 N-SH2 domain L43F 0.658 | SHP2 N-SH2 domain T42A 0.847 | SHP2 N-SH2 domain T52S 0.811 | [2] 0.956

MCDKEYFSVHN [MET_Y1234_Y1230C_YF]
inactive: SHP2 C-SH2 domain E139D 0.908 | [1] 0.667 | SHP2 N-SH2 domain L43F 0.933 | SHP2 N-SH2 domain T42A 0.667 | SHP2 N-SH2 domain T52S 0.718 | [2] 0.983

CDKEYYSVHNK [MET_Y1235_Y1230C]
inactive: SHP2 C-SH2 domain E139D 0.885 | [1] 1.2 | SHP2 N-SH2 domain L43F 0.843 | SHP2 N-SH2 domain T42A 0.862 | SHP2 N-SH2 domain T52S 0.81 | [2] 1.02

QADVVYVNTQL [MERTK_Y872_I871V]
inactive: SHP2 C-SH2 domain E139D 1.49 | [1] 1.39 | SHP2 N-SH2 domain L43F 1.73 | SHP2 N-SH2 domain T52S 1.17 | [2] 1.12
active: SHP2 N-SH2 domain T42A 4.02

GSTLSYGRDGR [MATR3_Y158_P154S]
inactive: SHP2 C-SH2 domain E139D 0.598 | [1] 0.606 | SHP2 N-SH2 domain L43F 0.605 | SHP2 N-SH2 domain T42A 0.596 | SHP2 N-SH2 domain T52S 0.572 | [2] 1.08

EVASVYQSYQP [MAVS_Y92]
inactive: SHP2 C-SH2 domain E139D 0.811 | [1] 0.673 | SHP2 N-SH2 domain L43F 0.705 | SHP2 N-SH2 domain T42A 0.443 | SHP2 N-SH2 domain T52S 0.768 | [2] 0.744

QELRRYLKSSV [MICA_Y194_G198S]
inactive: SHP2 C-SH2 domain E139D 0.603 | [1] 0.511 | SHP2 N-SH2 domain L43F 0.468 | SHP2 N-SH2 domain T42A 0.576 | SHP2 N-SH2 domain T52S 0.644 | [2] 0.644

YDKEYYSVHNK [MET_Y1235]
inactive: SHP2 C-SH2 domain E139D 0.842 | [1] 0.865 | SHP2 N-SH2 domain L43F 1.01 | SHP2 N-SH2 domain T42A 0.58 | SHP2 N-SH2 domain T52S 0.788 | [2] 1.03

SDGGCYEQLFV [MC4R_Y41]
inactive: SHP2 C-SH2 domain E139D 0.88 | [1] 0.809 | SHP2 N-SH2 domain L43F 0.79 | SHP2 N-SH2 domain T42A 0.704 | SHP2 N-SH2 domain T52S 0.718 | [2] 0.967

ARSHIYTFSSC [MEFV_Y741_A744S]
inactive: SHP2 C-SH2 domain E139D 0.709 | [1] 0.824 | SHP2 N-SH2 domain L43F 0.719 | SHP2 N-SH2 domain T42A 0.736 | SHP2 N-SH2 domain T52S 0.673 | [2] 0.831

SHNKYYMLVAR [MFSD8_Y134]
active: SHP2 C-SH2 domain E139D 4.72 | [1] 6.22 | SHP2 N-SH2 domain L43F 3.28
inactive: SHP2 N-SH2 domain T42A 3.08 | SHP2 N-SH2 domain T52S 3.08 | [2] 3.07

FGVTLYPNSGE [MEP1A_Y472_R476G]
inactive: SHP2 C-SH2 domain E139D 1.26 | [1] 1.09 | SHP2 N-SH2 domain L43F 1.29 | SHP2 N-SH2 domain T42A 1.08 | SHP2 N-SH2 domain T52S 1.16 | [2] 1.43

HFGCVYRGTLL [MET_Y1093_H1094R]
inactive: SHP2 C-SH2 domain E139D 1.14 | [1] 1.22 | SHP2 N-SH2 domain L43F 1.23 | SHP2 N-SH2 domain T42A 1.07 | SHP2 N-SH2 domain T52S 1.31 | [2] 1.83

MYDKEYYSVHN [MET_Y1234]
inactive: SHP2 C-SH2 domain E139D 1.09 | [1] 0.911 | SHP2 N-SH2 domain L43F 0.669 | SHP2 N-SH2 domain T42A 0.939 | SHP2 N-SH2 domain T52S 0.875 | [2] 1.08

TEFSQYMRRKN [MAX_Y73_I71S_YF]
inactive: SHP2 C-SH2 domain E139D 0.167 | [1] 0.222 | SHP2 N-SH2 domain L43F 0.258 | SHP2 N-SH2 domain T42A 0.259 | SHP2 N-SH2 domain T52S 0.262 | [2] 0.296

QELRRYLESGV [MICA_Y194_K196E]
inactive: SHP2 C-SH2 domain E139D 0.796 | [1] 0.752 | SHP2 N-SH2 domain L43F 0.483 | SHP2 N-SH2 domain T42A 0.743 | SHP2 N-SH2 domain T52S 0.776 | [2] 0.701

LARHMYDKEFF [MET_Y1230_D1228H_YF]
inactive: SHP2 C-SH2 domain E139D 1.14 | [1] 0.82 | SHP2 N-SH2 domain L43F 0.738 | SHP2 N-SH2 domain T42A 0.729 | SHP2 N-SH2 domain T52S 0.852 | [2] 1.19

YRIGPYQPNVP [MATR3_Y784]
inactive: SHP2 C-SH2 domain E139D 1.04 | [1] 1.01 | SHP2 N-SH2 domain L43F 1.01 | SHP2 N-SH2 domain T42A 0.914 | SHP2 N-SH2 domain T52S 0.847 | [2] 1.07

FGRTFYNQANM [MCCC2_Y196_I200N]
inactive: SHP2 C-SH2 domain E139D 0.785 | [1] 0.935 | SHP2 N-SH2 domain L43F 0.712 | SHP2 N-SH2 domain T42A 0.88 | SHP2 N-SH2 domain T52S 0.782 | [2] 1.57

KNNDGNIDFAE [MCFD2_Y135_Y135N_YF]
inactive: SHP2 C-SH2 domain E139D 0.412 | [1] 0.563 | SHP2 N-SH2 domain L43F 0.563 | SHP2 N-SH2 domain T42A 0.499 | SHP2 N-SH2 domain T52S 0.67 | [2] 0.811

FRIGPYQPSVP [MATR3_Y784_N787S_YF]
inactive: SHP2 C-SH2 domain E139D 1.58 | [1] 1.19 | SHP2 N-SH2 domain L43F 1.63 | SHP2 N-SH2 domain T42A 1.68 | SHP2 N-SH2 domain T52S 1.76 | [2] 1.41

RAEIVYKSPVV [MAPT_Y711_G706R]
inactive: SHP2 C-SH2 domain E139D 0.752 | [1] 0.747 | SHP2 N-SH2 domain L43F 0.675 | SHP2 N-SH2 domain T42A 0.95 | SHP2 N-SH2 domain T52S 0.827 | [2] 2.46

HSKGIYFVQLE [MGAT4B_Y262_Q257H_YF]
inactive: SHP2 C-SH2 domain E139D 1.91 | [1] 1.87 | SHP2 N-SH2 domain L43F 1.72 | SHP2 N-SH2 domain T42A 1.53 | SHP2 N-SH2 domain T52S 2.04 | [2] 2.3

EVASVYESFQP [MAVS_Y92_Q93E_YF]
inactive: SHP2 C-SH2 domain E139D 0.859 | [1] 0.743 | SHP2 N-SH2 domain L43F 0.853 | SHP2 N-SH2 domain T42A 0.845 | SHP2 N-SH2 domain T52S 0.759 | [2] 1.11

KNNDGNIDYAE [MCFD2_Y135_Y135N]
inactive: SHP2 C-SH2 domain E139D 0.392 | [1] 0.43 | SHP2 N-SH2 domain L43F 0.382 | SHP2 N-SH2 domain T42A 0.448 | SHP2 N-SH2 domain T52S 0.536 | [2] 0.403

CDGKEYDPVEA [MAPRE2_Y167_Y162C]
inactive: SHP2 C-SH2 domain E139D 0.6 | [1] 0.671 | SHP2 N-SH2 domain L43F 0.649 | SHP2 N-SH2 domain T42A 0.534 | SHP2 N-SH2 domain T52S 0.746 | [2] 0.793

ANRNVYEVEPT [MEGF10_Y1075]
inactive: SHP2 C-SH2 domain E139D 0.415 | [1] 0.376 | SHP2 N-SH2 domain L43F 0.332 | SHP2 N-SH2 domain T42A 0.411 | SHP2 N-SH2 domain T52S 0.499 | [2] 0.543

DKATEYIQYVR [MAX_Y70_M74V]
inactive: SHP2 C-SH2 domain E139D 0.653 | [1] 0.921 | SHP2 N-SH2 domain L43F 0.787 | SHP2 N-SH2 domain T42A 0.787 | SHP2 N-SH2 domain T52S 0.812 | [2] 0.799
